Assay results published in the supplement of paper PMC11741623.
The other results are listed elsewhere or left out. Interaction screen of human proteins with wild-type SARS-CoV-2 proteins by split-DHFR complementation in yeast, 1 µg/mL methotrexate. Value = fitness of the pair (three or more lineages) minus that of the viral protein without a human partner, on a scale set by negative (0) and fused positive (1) controls, mean of up to three cultures; higher = more likely to interact. Active = false discovery rate below 0.05 (one-sided t-test) in at least one culture. Nearly all pairs are not hits, and differences among them are mostly noise (correlation between cultures about 0.3); most hits were seen in one culture only. Human sequences are the Swiss-Prot entries looked up by gene name; the clone may be another isoform. NSP2 values were corrected by the authors for a growth advantage. Listed are human proteins with a hit and a random twelfth of the others.

B1: PVALB, P20472 (protein)
chain: MSMTDLLNAEDIKKAVGAFSATDSFDHKKFFQMVGLKKKSADDVKKVFHMLDKDKSGFIEEDELGFILKGFSPDARDLSAKETKMLMAAGDKDGDGKIGVDEFSTLVAES
B2: TMEM9, Q9P0T7 (protein)
chain: MKLLSLVAVVGCLLVPPAEANKSSEDIRCKCICPPYRNISGHIYNQNVSQKDCNCLHVVEPMPVPGHDVEAYCLLCECRYEERSTTTIKVIIVIYLSVVGALLLYMAFLMLVDPLIRKPDAYTEQLHNEEENEDARSMAAAAASLGGPRANTVLERVEGAQQRWKLQVQEQRKTVFDRHKMLS
B3: TRIP4, Q15650 (protein)
chain: MAVAGAVSGEPLVHWCTQQLRKTFGLDVSEEIIQYVLSIESAEEIREYVTDLLQGNEGKKGQFIEELITKWQKNDQELISDPLQQCFKKDEILDGQKSGDHLKRGRKKGRNRQEVPAFTEPDTTAEVKTPFDLAKAQENSNSVKKKTKFVNLYTREGQDRLAVLLPGRHPCDCLGQKHKLINNCLICGRIVCEQEGSGPCLFCGTLVCTHEEQDILQRDSNKSQKLLKKLMSGVENSGKVDISTKDLLPHQELRIKSGLEKAIKHKDKLLEFDRTSIRRTQVIDDESDYFASDSNQWLSKLERETLQKREEELRELRHASRLSKKVTIDFAGRKILEEENSLAEYHSRLDETIQAIANGTLNQPLTKLDRSSEEPLGVLVNPNMYQSPPQWVDHTGAASQKKAFRSSGFGLEFNSFQHQLRIQDQEFQEGFDGGWCLSVHQPWASLLVRGIKRVEGRSWYTPHRGRLWIAATAKKPSPQEVSELQATYRLLRGKDVEFPNDYPSGCLLGCVDLIDCLSQKQFKEQFPDISQESDSPFVFICKNPQEMVVKFPIKGNPKIWKLDSKIHQGAKKGLMKQNKAV

Molecular target: SARS-CoV-2 E
Test: yeast fitness gain over the viral ORF with no human partner (scaled fitness); higher = more likely to interact
Experimental: (§1)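 Split mouse DHFR complementation in pooled diploid yeast: human ORFeome clones carry one fragment and viral ORFs the other; barcoded lineages compete in 1 µg/mL methotrexate and fitness is read by barcode sequencing in up to three cultures.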

Binder	yeast fitness gain
B1	inactive: -0.0531
B2	inactive: -0.117
B3	inactive: -0.329

Molecular target: SARS-CoV-2 M
Test: as above
Experimental: as §1

Binder	yeast fitness gain
B1	inactive: 0.0671
B2	inactive: 0.144
B3	inactive: 0.0203

Molecular target: SARS-CoV-2 N
Test: as above
Experimental: as §1

Binder	yeast fitness gain
B1	inactive: -0.115
B2	inactive: 0.0218

Molecular target: SARS-CoV-2 NSP1
Test: as above
Experimental: as §1

Binder	yeast fitness gain
B1	inactive: 0.0967
B2	inactive: 0.0411
B3	inactive: 0.0786

Molecular target: SARS-CoV-2 NSP10
Test: as above
Experimental: as §1

Binder	yeast fitness gain
B1	inactive: 0.00812
B2	inactive: 0.0481
B3	inactive: 0.000979

Molecular target: SARS-CoV-2 NSP12
Test: as above
Experimental: as §1

Binder	yeast fitness gain
B1	inactive: 0.0524
B2	inactive: -0.0839
B3	inactive: 0.0706

Molecular target: SARS-CoV-2 NSP13
Test: as above
Experimental: as §1

Binder	yeast fitness gain
B1	inactive: 0.00509
B2	inactive: 0.0181
B3	inactive: 0.0623

Molecular target: SARS-CoV-2 NSP14
Test: as above
Experimental: as §1

Binder	yeast fitness gain
B1	inactive: 0.0954
B2	inactive: -0.00236
B3	inactive: 0.0355

Molecular target: SARS-CoV-2 NSP15
Test: as above
Experimental: as §1

Binder	yeast fitness gain
B1	inactive: -0.00628
B2	inactive: 0.0633
B3	inactive: 0.0291

Molecular target: SARS-CoV-2 NSP16
Test: as above
Experimental: as §1

Binder	yeast fitness gain
B1	inactive: 0.0553
B2	inactive: 0.0228
B3	inactive: -0.00205

Molecular target: SARS-CoV-2 NSP2
Test: as above
Experimental: as §1

Binder	yeast fitness gain
B1	active: 0.151
B2	inactive: -0.133
B3	inactive: -0.098

Molecular target: SARS-CoV-2 NSP4
Test: as above
Experimental: as §1

Binder	yeast fitness gain
B1	inactive: 0.12
B2	inactive: -0.299
B3	inactive: 0.11

Molecular target: SARS-CoV-2 NSP5
Test: as above
Experimental: as §1

Binder	yeast fitness gain
B1	inactive: 0.00431
B2	inactive: -0.103
B3	inactive: 0.0276

Molecular target: SARS-CoV-2 NSP6
Test: as above
Experimental: as §1

Binder	yeast fitness gain
B1	inactive: 0.0367
B2	inactive: 0.0021
B3	inactive: -0.0418

Molecular target: SARS-CoV-2 NSP7
Test: as above
Experimental: as §1

Binder	yeast fitness gain
B1	inactive: 0.0143
B2	inactive: -0.127
B3	inactive: 0.0286

Molecular target: SARS-CoV-2 NSP8
Test: as above
Experimental: as §1

Binder	yeast fitness gain
B1	inactive: 0.0124
B2	inactive: -0.0345
B3	inactive: 0.0826

Molecular target: SARS-CoV-2 NSP9
Test: as above
Experimental: as §1

Binder	yeast fitness gain
B1	inactive: 0.00385
B2	inactive: -0.383
B3	inactive: 0.00301

Molecular target: SARS-CoV-2 ORF10
Test: as above
Experimental: as §1

Binder	yeast fitness gain
B1	inactive: -0.0175
B2	inactive: -0.067
B3	inactive: 0.00559

Molecular target: SARS-CoV-2 ORF3A
Test: as above
Experimental: as §1

Binder	yeast fitness gain
B1	inactive: 0.0967
B2	inactive: 0.0326

Molecular target: SARS-CoV-2 ORF3B
Test: as above
Experimental: as §1

Binder	yeast fitness gain
B1	inactive: 0.0199
B2	inactive: 0.0838
B3	inactive: 0.00286

Molecular target: SARS-CoV-2 ORF6
Test: as above
Experimental: as §1

Binder	yeast fitness gain
B1	inactive: 0.0258
B2	inactive: 0.0502
B3	inactive: -0.0571

Molecular target: SARS-CoV-2 ORF7A
Test: as above
Experimental: as §1

Binder	yeast fitness gain
B1	inactive: 0.024
B2	inactive: 0.0624
B3	inactive: 0.0566

Molecular target: SARS-CoV-2 ORF7B
Test: as above
Experimental: as §1

Binder	yeast fitness gain
B1	inactive: 0.0492
B2	inactive: 0.0489
B3	inactive: 0.0413

Molecular target: SARS-CoV-2 ORF8
Test: as above
Experimental: as §1

Binder	yeast fitness gain
B1	inactive: 0.0448
B2	inactive: 0.108
B3	inactive: 0.0286

Molecular target: SARS-CoV-2 ORF9B
Test: as above
Experimental: as §1

Binder	yeast fitness gain
B1	inactive: -0.0336
B2	inactive: -0.0431
B3	inactive: -0.0106

Molecular target: SARS-CoV-2 ORF9Bwu (the 73-codon ORF)
Test: as above
Experimental: as §1

Binder	yeast fitness gain
B1	inactive: 0.0539
B2	inactive: -0.0873
B3	inactive: -0.0564

Molecular target: SARS-CoV-2 S
Test: as above
Experimental: as §1

Binder	yeast fitness gain
B1	inactive: -0.0516
B2	inactive: 0.0104
B3	inactive: -0.00419
